# Reference: the supplement of paper PMC4604168 (melanoma cell lines)
# This is one part of the list. Repeats are few or missing, and single values can be far off.
# Experiments:
# Assay in all cases: cell count relative to DMSO control; melanoma cells; higher = more viable cells
# Conditions in all cases: library dose: low library concentration; 72 h
# COLO792 = system: COLO792
# COLO800 = system: COLO800
# COLO829 = system: COLO829
# G361 = system: G361
# IPC-298 = system: IPC-298
# IST-MEL1 = system: IST-MEL1
# LB2518-MEL = system: LB2518-MEL
# LOXIMVI = system: LOXIMVI
# MEL-HO = system: MEL-HO
# MZ2-MEL = system: MZ2-MEL
# MeWo = system: MeWo
# RPMI7951 = system: RPMI7951
# RVH-421 = system: RVH-421
# SkMel28 = system: SkMel28
# SkMel2 = system: SkMel2
# SkMel30 = system: SkMel30
# SkMel5 = system: SkMel5
# UACC257 = system: UACC257
# UACC62 = system: UACC62
# 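Also: cell number obtained by counting DAPI-stained nuclei in high-throughput microscope images with image analysis software, screen run in 1,536-well plates.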
SMILES,cell count (COLO792) [%],cell count (COLO800) [%],cell count (COLO829) [%],cell count (G361) [%],cell count (IPC-298) [%],cell count (IST-MEL1) [%],cell count (LB2518-MEL) [%],cell count (LOXIMVI) [%],cell count (MEL-HO) [%],cell count (MZ2-MEL) [%],cell count (MeWo) [%],cell count (RPMI7951) [%],cell count (RVH-421) [%],cell count (SkMel28) [%],cell count (SkMel2) [%],cell count (SkMel30) [%],cell count (SkMel5) [%],cell count (UACC257) [%],cell count (UACC62) [%]
"CCCS(=O)(=O)Nc1ccc(F)c(C(=O)c2c[nH]c3ncc(Cl)cc23)c1F + COc1cc(N2CCC(N3CCN(C)CC3)CC2)ccc1Nc1ncc(Cl)c(Nc2ccccc2S(=O)(=O)C(C)C)n1 [NVP-TAE684] (first compound 0.08 µM, partner dose 0.08 µM)",85,96.4,112,86.5,91.2,92.3,114,109,90.1,85.2,87.8,99.3,77,84.1,96.1,96.9,110,83.1,77.7
"CN(c1ncccc1CNc1nc(Nc2ccc3c(c2)CC(=O)N3)ncc1C(F)(F)F)S(C)(=O)=O + Cn1cncc1[C@@](N)(c1ccc(Cl)cc1)c1ccc2c(c1)c(-c1cccc(Cl)c1)cc(=O)n2C [tipifarnib] (first compound 0.08 µM, partner dose 0.01 µM)",70.2,101,59.6,92.5,88.2,87.8,68,50.3,91.8,95.6,105,73.9,84.3,90.2,78,108,91.3,48.9,58
"CS(=O)(=O)c1ccc(C(=O)Nc2ccc(Cl)c(-c3ccccn3)c2)c(Cl)c1 [vismodegib] + Cc1cc([N+](=O)[O-])ccc1NS(=O)(=O)c1cc(Cl)ccc1Cl [FH535] (first compound 1 µM, partner dose 1 µM)",102,128,95.7,94.3,90.2,91.1,98.4,75.8,101,94.8,106,92.3,101,87.7,94.2,87.5,84.7,79.4,107
"CCCS(=O)(=O)Nc1ccc(F)c(C(=O)c2c[nH]c3ncc(Cl)cc23)c1F + CCc1ccc(CCOc2ccc(CC3SC(=O)NC3=O)cc2)nc1 [pioglitazone] (first compound 0.08 µM, partner dose 2 µM)",114,136,137,89.1,88.9,103,95,67.6,93.1,83.5,84.3,117,87.8,99.2,106,73.4,118,100,64.1
"C=C(c1ccc(C(=O)O)cc1)c1cc2c(cc1C)C(C)(C)CCC2(C)C [Bexarotene] + COc1cc(N2CCC(N3CCN(C)CC3)CC2)ccc1Nc1ncc(Cl)c(Nc2ccccc2S(=O)(=O)C(C)C)n1 [NVP-TAE684] (first compound 2 µM, partner dose 0.08 µM)",95.5,98.9,78.5,102,102,102,88.6,120,82.6,95.8,72,88.4,98.2,89.8,99.6,117,99.4,78.3,93.1
"C=C(c1ccc(C(=O)O)cc1)c1cc2c(cc1C)C(C)(C)CCC2(C)C [Bexarotene] + CC1(C)NC(=O)N(c2ccc([N+](=O)[O-])c(C(F)(F)F)c2)C1=O [nilutamide] (first compound 2 µM, partner dose 1 µM)",90.1,192,97.9,82.7,97.1,100,95.2,86.9,92.4,106,99.3,81.7,103,78.7,86.7,104,79.8,101,102
"C=C(c1ccc(C(=O)O)cc1)c1cc2c(cc1C)C(C)(C)CCC2(C)C [Bexarotene] + CCN(CC)CCCCNc1ncc2cc(-c3cc(OC)cc(OC)c3)c(NC(=O)NC(C)(C)C)nc2n1 [PD173074] (first compound 2 µM, partner dose 0.1 µM)",109,164,120,110,105,107,104,152,97.2,90.7,87.5,81.3,89.2,81.2,100,95.6,92.3,120,96.6
"CCCS(=O)(=O)Nc1ccc(F)c(C(=O)c2c[nH]c3ncc(Cl)cc23)c1F + CO[C@@H]1[C@H](N(C)C(=O)c2ccccc2)C[C@H]2O[C@]1(C)n1c3ccccc3c3c4c(c5c6ccccc6n2c5c31)C(=O)NC4 [Midostaurin] (first compound 0.08 µM, partner dose 0.08 µM)",93.3,71.3,103,91.3,95.8,102,96.4,86.5,88.5,84.8,88.5,104,73.5,101,84.5,119,108,82.2,72.1
"CCCS(=O)(=O)Nc1ccc(F)c(C(=O)c2c[nH]c3ncc(Cl)cc23)c1F + CC(C)(C)c1cnc(CSc2cnc(NC(=O)C3CCNCC3)s2)o1 [SNS-032] (first compound 0.08 µM, partner dose 0.01 µM)",91.2,92,121,89.8,91.9,88,77.7,94.2,83.3,79.9,88.4,89.4,81.8,76.1,88.9,83.3,95.9,98.2,57
"CN(c1ncccc1CNc1nc(Nc2ccc3c(c2)CC(=O)N3)ncc1C(F)(F)F)S(C)(=O)=O + CC(C)CCN1c2nc(Nc3cc(F)c(O)c(F)c3)ncc2N(C)C(=O)C1C [BID1870] (first compound 0.08 µM, partner dose 0.2 µM)",80,110,100,88.8,97.7,96.4,104,59.7,92.6,95.2,103,84.9,87.7,87.3,78.5,83.4,84.7,70.4,86.3
"C=C(c1ccc(C(=O)O)cc1)c1cc2c(cc1C)C(C)(C)CCC2(C)C [Bexarotene] + NC(=O)Nc1cc(-c2cccc(F)c2)sc1C(=O)N[C@H]1CCCNC1 [AZD7762] (first compound 2 µM, partner dose 0.02 µM)",99,115,96.2,104,111,115,127,203,108,102,107,93.4,137,90.9,104,112,93,132,89.3
"NC1(c2ccc(-c3nc4ccn5c(=O)[nH]nc5c4cc3-c3ccccc3)cc2)CCC1 + Oc1cc(-c2nc(-c3ccccc3)[nH]c2-c2ccncc2)ccc1Cl [L779450] (first compound 0.4 µM, partner dose 0.2 µM)",81.3,84.9,108,105,87.9,99.1,92.3,78.6,85.4,69.1,108,104,91,66.6,88.4,69.1,114,73.4,74.4
"C=C(c1ccc(C(=O)O)cc1)c1cc2c(cc1C)C(C)(C)CCC2(C)C [Bexarotene] + C[C@@H]1CCN(C(=O)CC#N)C[C@@H]1N(C)c1ncnc2[nH]ccc12 [CP690550] (first compound 2 µM, partner dose 1 µM)",86.9,101,103,88.9,98.4,97.3,–,151,97.1,–,88.4,67.2,113,75.1,–,97.8,71,101,93.1
"CN(c1ncccc1CNc1nc(Nc2ccc3c(c2)CC(=O)N3)ncc1C(F)(F)F)S(C)(=O)=O + NC(=O)Nc1cc(-c2cccc(F)c2)sc1C(=O)N[C@H]1CCCNC1 [AZD7762] (first compound 0.08 µM, partner dose 0.02 µM)",76.2,121,104,118,103,99.8,129,92.7,85.5,104,111,91,112,79.2,110,90.2,80.5,130,97.7
"CS(=O)(=O)c1ccc(C(=O)Nc2ccc(Cl)c(-c3ccccn3)c2)c(Cl)c1 [vismodegib] + COc1cc2c(Oc3ccc4[nH]c(C)cc4c3F)ncnc2cc1OCCCN1CCCC1 [cediranib] (first compound 1 µM, partner dose 0.4 µM)",87.9,71.2,125,113,96.9,96.3,113,146,102,103,93.2,125,82.3,95.7,96.1,90.5,97.6,110,98.9
"CS(=O)(=O)c1ccc(C(=O)Nc2ccc(Cl)c(-c3ccccn3)c2)c(Cl)c1 [vismodegib] + Oc1cc(-c2nc(-c3ccccc3)[nH]c2-c2ccncc2)ccc1Cl [L779450] (first compound 1 µM, partner dose 0.2 µM)",105,78,136,73.9,92.4,102,114,125,99.3,79.8,94.5,92.5,114,96.4,99.7,95.3,90.9,83.6,75.2
"CN(c1ncccc1CNc1nc(Nc2ccc3c(c2)CC(=O)N3)ncc1C(F)(F)F)S(C)(=O)=O + COc1cc(N2CCC(N3CCN(C)CC3)CC2)ccc1Nc1ncc(Cl)c(Nc2ccccc2S(=O)(=O)C(C)C)n1 [NVP-TAE684] (first compound 0.08 µM, partner dose 0.08 µM)",84.8,78.9,83.8,95.7,107,95.1,115,72,94.6,104,97.4,76.2,84.8,72.1,90.9,82.6,82.5,76.5,128
"NC1(c2ccc(-c3nc4ccn5c(=O)[nH]nc5c4cc3-c3ccccc3)cc2)CCC1 + O=C(Nc1cccc(Cl)c1)Nc1ncc(CCNc2ncnc3ccsc23)s1 [SNS314] (first compound 0.4 µM, partner dose 0.0008 µM)",72.2,56,89,90.8,93.6,91.4,65.9,104,81.5,95.1,93.5,83,80.5,68.4,80,98.9,92.7,84.4,67.8
